Among all 310,000 compounds or so, about 14,000 (4.5%) showed an effect of 50% or more. Effects have a minus sign here. Some of the results follow.
What follows are compounds tested against human ether-à-go-go-related gene (hERG) potassium channel (human, UniProt Q12809) (assay: primary screen, population patch clamp on CHO cells stably expressing hERG).
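Also: peak tail current of the secondary pulse compared with the same well before compound.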

Sequence of human ether-à-go-go-related gene (hERG) potassium channel (Q12809 whole entry, looked up): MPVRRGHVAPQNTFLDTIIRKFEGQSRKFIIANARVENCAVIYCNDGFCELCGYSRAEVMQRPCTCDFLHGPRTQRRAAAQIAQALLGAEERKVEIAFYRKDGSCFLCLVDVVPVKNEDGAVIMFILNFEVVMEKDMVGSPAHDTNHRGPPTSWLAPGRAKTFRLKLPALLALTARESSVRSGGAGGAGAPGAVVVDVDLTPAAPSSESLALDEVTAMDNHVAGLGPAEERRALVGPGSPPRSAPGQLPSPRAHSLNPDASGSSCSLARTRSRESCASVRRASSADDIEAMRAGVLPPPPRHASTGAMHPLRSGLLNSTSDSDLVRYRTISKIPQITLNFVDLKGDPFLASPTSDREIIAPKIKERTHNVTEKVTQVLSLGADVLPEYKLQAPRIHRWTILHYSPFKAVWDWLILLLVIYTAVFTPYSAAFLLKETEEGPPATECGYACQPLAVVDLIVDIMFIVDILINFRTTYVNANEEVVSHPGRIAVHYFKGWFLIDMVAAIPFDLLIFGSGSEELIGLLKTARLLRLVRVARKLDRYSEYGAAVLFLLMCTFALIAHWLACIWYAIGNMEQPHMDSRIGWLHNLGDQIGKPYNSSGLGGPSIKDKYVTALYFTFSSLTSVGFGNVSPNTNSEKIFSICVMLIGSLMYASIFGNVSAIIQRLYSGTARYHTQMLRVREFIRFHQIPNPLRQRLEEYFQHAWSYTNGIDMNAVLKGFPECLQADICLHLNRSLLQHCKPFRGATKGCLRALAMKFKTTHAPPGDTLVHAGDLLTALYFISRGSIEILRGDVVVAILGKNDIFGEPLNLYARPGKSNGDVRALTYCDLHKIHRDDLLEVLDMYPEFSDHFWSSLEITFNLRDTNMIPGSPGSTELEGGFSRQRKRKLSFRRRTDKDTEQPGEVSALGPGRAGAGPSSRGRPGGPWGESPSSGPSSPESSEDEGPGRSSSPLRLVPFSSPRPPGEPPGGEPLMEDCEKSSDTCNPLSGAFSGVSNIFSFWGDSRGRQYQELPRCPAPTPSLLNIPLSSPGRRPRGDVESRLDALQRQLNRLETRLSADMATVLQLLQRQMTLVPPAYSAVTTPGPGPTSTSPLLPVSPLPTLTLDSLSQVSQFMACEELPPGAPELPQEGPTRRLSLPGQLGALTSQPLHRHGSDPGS

Q: Which “hERG current change (%, negative = inhibition) at 10uM” value does the source give for C=C1CCN([C@@H](CC(C)C)C(=O)Nc2nc3ccc(Cl)cc3s2)S(=O)(=O)c2ccccc21 here?
A: -1.16%

Q: c1ccc(C2=Nn3c(nnc3-c3n[nH]c4c3CCC4)SC2)cc1 was tested. Which “hERG current change (%, negative = inhibition) at 10uM” value did it give?
A: -34.7%

Q: How did the “hERG current change (%, negative = inhibition) at 10uM” value turn out when CN(C)S(=O)(=O)c1ccc(S(=O)(=O)N2CCN(CCC#N)CC2)cc1 was run?
A: -1.43%

Q: Cn1c(=O)c2c(nc(N3CCN(c4ccccn4)CC3)n2Cc2ccc(Cl)cc2Cl)n(C)c1=O was tested. Which “hERG current change (%, negative = inhibition) at 10uM” value did it give?
A: 0.235%

Q: O=C(NCCc1ccccn1)c1ccc(NS(=O)(=O)c2ccc(F)cc2)cc1 was tested. Which “hERG current change (%, negative = inhibition) at 10uM” value did it give?
A: 25%

Q: CCN(CC(=O)Nc1c(F)cccc1F)C(=O)c1cc(-c2cccs2)nn1-c1ccccc1 was tested. Which “hERG current change (%, negative = inhibition) at 10uM” value did it give?
A: -17.4%

Q: Which “hERG current change (%, negative = inhibition) at 10uM” value does the source give for COCC(C)NC(=O)C1CC(=O)N(c2ccc(C)cc2)C1 (centres unmarked) here?
A: 7.94%

Q: Which “hERG current change (%, negative = inhibition) at 10uM” value does the source give for CCOc1nc(-c2ccccc2)ccc1-c1noc(-c2cccnc2)n1 here?
A: 6.49%

Q: With CC(=O)N1CCN(S(=O)(=O)c2cccc(C(=O)N(Cc3ccccc3)c3ccc(C)cc3)c2)CC1 as the compound, how does the “hERG current change (%, negative = inhibition) at 10uM” value read?
A: -61.2%

Q: Which “hERG current change (%, negative = inhibition) at 10uM” value does the source give for CC(C)N1CCN(Cc2cccc(-n3cccn3)c2)CC1CCO (centres unmarked) here?
A: -12.3%

Q: For COCc1ccc(CN2CCc3c([nH]c4ccccc34)C2C(C)(C)C)o1 (centres unmarked), which “hERG current change (%, negative = inhibition) at 10uM” value is on record?
A: 7.25%

Q: Which “hERG current change (%, negative = inhibition) at 10uM” value does the source give for CC(NC(=O)Cn1cccc1C(=O)c1ccccc1)c1ccc2c(c1)OCCO2 (centres unmarked) here?
A: 3.8%

Q: CCCCNC(=O)CN1C(=O)NC(CCc2ccccc2)C1=O (centres unmarked) was tested. Which “hERG current change (%, negative = inhibition) at 10uM” value did it give?
A: 41.1%

Q: For COc1ccc2c(C)cc(SCc3c(C)noc3C)nc2c1, which “hERG current change (%, negative = inhibition) at 10uM” value is on record?
A: -17%

Q: CCN(CC)C(=O)c1cc2c(=O)oc3ccccc3c2s1 was tested. Which “hERG current change (%, negative = inhibition) at 10uM” value did it give?
A: -25%

Q: Which “hERG current change (%, negative = inhibition) at 10uM” value does the source give for O=C(CNS(=O)(=O)c1ccc2c(c1)OCCCO2)N1CCN(c2ccc(F)cc2)CC1 here?
A: -15.5%

Q: Which “hERG current change (%, negative = inhibition) at 10uM” value does the source give for CCC(NC(=O)CCc1c(C)c2cc3c4c(oc3cc2oc1=O)CCCC4)C(=O)O (centres unmarked) here?
A: 16.2%

Q: How did the “hERG current change (%, negative = inhibition) at 10uM” value turn out when COc1ccc(C2CC(=O)Nc3n[nH]c(-c4ccccc4)c32)cc1OC (centres unmarked) was run?
A: 14.3%

Q: How did the “hERG current change (%, negative = inhibition) at 10uM” value turn out when CC1(c2ccc(Cl)cc2)NC(=O)N(CC(=O)N2CCCC2)C1=O (centres unmarked) was run?
A: 5.09%

Q: For COc1cccc(C(=O)Oc2ccc3ccc(O)cc3c2)c1, which “hERG current change (%, negative = inhibition) at 10uM” value is on record?
A: 11.9%

Q: Which “hERG current change (%, negative = inhibition) at 10uM” value does the source give for CC(NC(=O)c1c(Cl)cnn1C)C1CCCO1 (centres unmarked) here?
A: 13.9%

Q: How did the “hERG current change (%, negative = inhibition) at 10uM” value turn out when COCCn1c(SCC(=O)N2CCOCC2)nc2ccccc2c1=O was run?
A: -22.3%

Q: Which “hERG current change (%, negative = inhibition) at 10uM” value does the source give for O=C(Nc1cccc(Cl)c1)N(Cc1nc2ccccc2c(=O)[nH]1)C1CCCC1 here?
A: -0.99%

Q: With COCCC(=O)N1CCCC(CNS(=O)(=O)c2ccc(OC)cc2)C1 (centres unmarked) as the compound, how does the “hERG current change (%, negative = inhibition) at 10uM” value read?
A: 13.7%

Q: With Cc1ccc(C(=O)NCc2ccccn2)cc1Cl as the compound, how does the “hERG current change (%, negative = inhibition) at 10uM” value read?
A: 9.7%

Q: With CCC(=O)N/N=C/c1ccc(OS(=O)(=O)c2ccccc2)cc1 as the compound, how does the “hERG current change (%, negative = inhibition) at 10uM” value read?
A: -17.5%

Q: How did the “hERG current change (%, negative = inhibition) at 10uM” value turn out when O=C(c1ccc(F)cc1)c1ccc(-c2ccc(F)cc2)nc1 was run?
A: 24.3%

Q: Which “hERG current change (%, negative = inhibition) at 10uM” value does the source give for Cc1ccc(C)c(C2C(C#N)=C(N)Oc3cc(C)oc(=O)c32)c1 (centres unmarked) here?
A: 1.87%

Q: COCCNc1nnnc2c1sc1nc(N3CCOCC3)c3c(c12)CC(C)(C)OC3 was tested. Which “hERG current change (%, negative = inhibition) at 10uM” value did it give?
A: -7.85%

Q: How did the “hERG current change (%, negative = inhibition) at 10uM” value turn out when Cc1cc(OCC(=O)NCC(O)c2ccccc2)c2c3c(c(=O)oc2c1)CCCC3 (centres unmarked) was run?
A: 12.1%

Q: Which “hERG current change (%, negative = inhibition) at 10uM” value does the source give for Cc1cc(S(=O)(=O)NCc2ccccc2)ccc1OCC(=O)NCc1ccccn1 here?
A: -39.1%

Q: Cc1ccc(/C=N/Nc2cccc3cccnc23)c(O)c1 was tested. Which “hERG current change (%, negative = inhibition) at 10uM” value did it give?
A: 7.91%

Q: For COc1ccc(CNC(=O)Nc2ccc(C)cc2C)cc1, which “hERG current change (%, negative = inhibition) at 10uM” value is on record?
A: 4.99%

Q: Which “hERG current change (%, negative = inhibition) at 10uM” value does the source give for O=C1N[C@@H](Cc2ccccc2)C(=O)N2CCC[C@@H]12 here?
A: 6.78%

Q: Which “hERG current change (%, negative = inhibition) at 10uM” value does the source give for COC(=O)C1Cc2c([nH]c3ccccc23)CN1 (centres unmarked) here?
A: 1.45%

Q: How did the “hERG current change (%, negative = inhibition) at 10uM” value turn out when CC(C)c1nnc(N2C(=O)c3oc4ccccc4c(=O)c3C2c2ccco2)s1 (centres unmarked) was run?
A: 14.6%

Q: Which “hERG current change (%, negative = inhibition) at 10uM” value does the source give for COCC(=O)N/N=C/c1ccc(Sc2nc3ccccc3s2)o1 here?
A: -10.3%

Q: How did the “hERG current change (%, negative = inhibition) at 10uM” value turn out when Cc1ccccc1C(=O)N1CCC(C(=O)Nc2ccc(C)c(S(=O)(=O)N3CCCCC3)c2)CC1 was run?
A: -10.2%

Q: Which “hERG current change (%, negative = inhibition) at 10uM” value does the source give for COc1ccc(NC(=O)C2CCN(S(=O)(=O)c3ccccc3)CC2)cc1 here?
A: 26.2%

Q: How did the “hERG current change (%, negative = inhibition) at 10uM” value turn out when CN(Cc1ccccc1)C(=O)c1ccc2c(c1)OCCO2 was run?
A: 5.55%

Q: CC(=O)c1cc(CN2C(=O)c3ccccc3C2=O)cs1 was tested. Which “hERG current change (%, negative = inhibition) at 10uM” value did it give?
A: -1.21%

Q: Which “hERG current change (%, negative = inhibition) at 10uM” value does the source give for Cc1cccc(C)c1NC(=O)C1(N2CCN(C(=O)c3ccco3)CC2)CCCCC1 here?
A: -15.7%

Q: For Cc1ccc(CN2C(=O)/C(=C\c3ccc(C(=O)NCc4cccnc4)cc3)Oc3ccccc32)cc1, which “hERG current change (%, negative = inhibition) at 10uM” value is on record?
A: 12.9%

Q: With O=C(c1ccc2c(=O)n3c(nc2c1)CCC3)N1CCN(S(=O)(=O)c2cccc(F)c2)CC1 as the compound, how does the “hERG current change (%, negative = inhibition) at 10uM” value read?
A: -4.8%
